Measurements from the supplement of paper PMC4967469.
A lower IC50 marks a more sensitive line; a fit beyond the top or the lowest dose is shown as a bound at that dose. AUC, from the same fit, is the share of area under the viability curve across the 256-fold dose range: 1 means no effect, lower means more sensitive. For some of these results: Where the top dose is marked as inferred, it comes from the curve model; the source does not state it.

What was measured:
Assay in all cases: Viability of human cancer cell lines after 72 h of drug (GDSC screen)
[1] = compound: NC(=O)Nc1cc(-c2cccc(F)c2)sc1C(=O)N[C@H]1CCCNC1 [AZD7762]; details: top dose 2 µM
Procedure: (§1)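 Human cancer cell lines in 384-well plates, medium with 10% serum, drug for 72 h over a 256-fold dose range (nine 2-fold or five 4-fold steps up to the top dose). Adherent lines were fixed and stained with the nucleic acid dye Syto60, suspension lines read with resazurin; signal relative to control wells, capped at 0 and 100%. One two-parameter sigmoid per drug and line, fitted in a mixed model over all curves with the slope shared within a line.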

[2] = compound: C=C(c1ccc(C(=O)O)cc1)c1cc2c(cc1C)C(C)(C)CCC2(C)C [Bexarotene]; details: top dose 8 µM
Procedure: as §1

[3] = compound: Oc1nc(-c2ccc(C(F)(F)F)cc2)nc2c1CSCC2 [XAV 939]; details: top dose 5 µM; top dose inferred
Procedure: as §1

[4] = compound: Cc1ccc2nc(NCCN)c3ncc(C)n3c2c1 [BMS-345541]; details: top dose 16 µM
Procedure: as §1

[5] = compound: COc1ccc(C(=O)CC2(O)C(=O)Nc3c(Cl)ccc(Cl)c32)cc1 [YK 4-279]; details: top dose 10 µM
Procedure: as §1

[6] = compound: O=C(O)c1ccc(-c2c[nH]c3ncc(-c4ccccc4)cc23)cc1C1CCCC1 [GSK-650394]; details: top dose 16 µM; top dose inferred
Procedure: as §1

[7] = compound: COc1cc(C(=O)NC2CCN(C)CC2)ccc1Nc1ncc2c(n1)N(C1CCCC1)C(C)CC(=O)N2C [NPK76-II-72-1]; details: top dose 10.24 µM; top dose inferred
Procedure: as §1

Row | Cell Line | AUC [1] | IC50 [1] | AUC [2] | IC50 [2] | AUC [3] | IC50 [3] | AUC [4] | IC50 [4] | AUC [5] | IC50 [5] | AUC [6] | IC50 [6] | AUC [7] | IC50 [7]
1 | C32 (melanoma, adherent) | 0.507 | 0.13 µM | 0.968 | > 8 µM | 0.976 | > 5 µM | 0.889 | > 16 µM | 0.851 | 8.48 µM | 0.987 | > 16 µM | 0.987 | > 10.2 µM
2 | C-33-A (cervix, adherent) | 0.515 | 0.138 µM | 0.852 | 6.19 µM | 0.928 | > 5 µM | 0.882 | > 16 µM | 0.803 | 4.99 µM | 0.753 | 5.36 µM | 0.495 | 0.62 µM
3 | CAL-12T (non-small cell lung carcinoma, adherent) | 0.707 | 0.518 µM | 0.783 | 3.81 µM | 0.929 | > 5 µM | 0.699 | 3.9 µM | 0.689 | 2.27 µM | 0.606 | 2.03 µM | 0.906 | > 10.2 µM
4 | CMK (acute myeloid leukaemia, suspension) | 0.759 | 0.602 µM | 0.882 | 6.23 µM | 0.977 | > 5 µM | 0.746 | 4.42 µM | 0.701 | 2.07 µM | 0.711 | 3.53 µM | 0.695 | 2.04 µM
5 | COLO-205 (large intestine, suspension) | 0.839 | 1.34 µM | 0.966 | > 8 µM | 0.984 | > 5 µM | 0.91 | > 16 µM | 0.848 | 7.28 µM | 0.778 | 6.4 µM | 0.82 | 5.79 µM
6 | COLO-800 (melanoma, adherent) | 0.762 | 0.697 µM | 0.987 | > 8 µM | 0.982 | > 5 µM | 0.868 | 14 µM | 0.54 | 0.799 µM | 0.852 | 11.8 µM | 0.978 | > 10.2 µM
7 | Calu-3 (lung adenocarcinoma, adherent) | 0.932 | > 2 µM | 0.962 | > 8 µM | 0.917 | > 5 µM | 0.972 | > 16 µM | 0.812 | 7.18 µM | 0.791 | 9.32 µM | 0.978 | > 10.2 µM
8 | Calu-6 (lung adenocarcinoma, adherent) | 0.815 | 1.31 µM | 0.953 | > 8 µM | 0.93 | > 5 µM | 0.937 | > 16 µM | 0.674 | 2.06 µM | 0.951 | > 16 µM | 0.819 | 6.97 µM
9 | Capan-2 (pancreas, adherent) | 0.87 | > 2 µM | 0.983 | > 8 µM | 0.769 | 2.3 µM | 0.964 | > 16 µM | 0.887 | > 10 µM | 0.984 | > 16 µM | 0.982 | > 10.2 µM
10 | DB (B-cell lymphoma, suspension) | 0.84 | 1.64 µM | 0.954 | > 8 µM | 0.81 | 3.05 µM | 0.73 | 4.96 µM | 0.626 | 1.46 µM | 0.934 | > 16 µM | 0.659 | 1.88 µM
11 | DMS-114 (small cell lung carcinoma, adherent) | 0.908 | > 2 µM | 0.972 | > 8 µM | 0.983 | > 5 µM | 0.886 | > 16 µM | 0.698 | 2.47 µM | 0.972 | > 16 µM | 0.779 | 4.86 µM
12 | EVSA-T (breast, adherent) | 0.901 | 1.94 µM | 0.991 | > 8 µM | 0.979 | > 5 µM | 0.907 | > 16 µM | 0.719 | 2.34 µM | 0.981 | > 16 µM | 0.776 | 3.5 µM
13 | Farage (B-cell lymphoma, suspension) | 0.58 | 0.198 µM | 0.957 | > 8 µM | 0.932 | > 5 µM | 0.727 | 3.83 µM | 0.921 | > 10 µM | 0.911 | 15.7 µM | 0.59 | 1.07 µM
14 | G-361 (melanoma, adherent) | 0.473 | 0.106 µM | 0.795 | 3.54 µM | 0.981 | > 5 µM | 0.875 | 14.6 µM | 0.805 | 4.79 µM | 0.736 | 4.55 µM | 0.927 | > 10.2 µM
15 | GDM-1 (acute myeloid leukaemia, suspension) | 0.508 | 0.131 µM | 0.957 | > 8 µM | 0.976 | > 5 µM | 0.641 | 2.41 µM | 0.739 | 2.91 µM | 0.502 | 1.01 µM | 0.474 | 0.545 µM
16 | HCC202 (breast, adherent) | 0.92 | > 2 µM | 0.941 | > 8 µM | 0.935 | > 5 µM | 0.848 | > 16 µM | 0.866 | > 10 µM | 0.868 | > 16 µM | 0.897 | > 10.2 µM

Row | Cell Line | AUC [1] | IC50 [1] | AUC [2] | IC50 [2] | AUC [3] | IC50 [3] | AUC [4] | IC50 [4] | AUC [5] | IC50 [5] | AUC [6] | IC50 [6] | AUC [7] | IC50 [7]
17 | HCC1954 (breast, adherent) | 0.884 | > 2 µM | 0.983 | > 8 µM | 0.973 | > 5 µM | 0.727 | 5 µM | 0.779 | 4.81 µM | 0.931 | > 16 µM | 0.984 | > 10.2 µM
18 | HCC-827 (lung adenocarcinoma, adherent) | 0.693 | 0.477 µM | 0.863 | > 8 µM | 0.978 | > 5 µM | 0.906 | > 16 µM | 0.944 | > 10 µM | 0.982 | > 16 µM | 0.972 | > 10.2 µM
19 | HT (B-cell lymphoma, suspension) | 0.741 | 0.571 µM | 0.912 | > 8 µM | 0.85 | 3.33 µM | 0.835 | 9.31 µM | 0.879 | 8.81 µM | 0.963 | > 16 µM | 0.787 | 4.08 µM
20 | HT-1080 (fibrosarcoma, adherent) | 0.701 | 0.429 µM | 0.964 | > 8 µM | 0.976 | > 5 µM | 0.974 | > 16 µM | 0.639 | 1.44 µM | 0.757 | 4.99 µM | 0.984 | > 10.2 µM
21 | HuH-7 (liver, adherent) | 0.796 | 0.932 µM | 0.972 | > 8 µM | 0.902 | > 5 µM | 0.987 | > 16 µM | 0.714 | 2.5 µM | 0.854 | 12.6 µM | 0.977 | > 10.2 µM
22 | IPC-298 (melanoma, adherent) | 0.516 | 0.138 µM | 0.934 | > 8 µM | 0.983 | > 5 µM | 0.907 | > 16 µM | 0.765 | 3.59 µM | 0.977 | > 16 µM | 0.943 | > 10.2 µM
23 | IST-MEL1 (melanoma, adherent) | 0.617 | 0.279 µM | 0.93 | > 8 µM | 0.932 | > 5 µM | 0.858 | > 16 µM | 0.609 | 1.32 µM | 0.863 | > 16 µM | 0.912 | > 10.2 µM
24 | KARPAS-422 (B-cell lymphoma, suspension) | 0.688 | 0.418 µM | 0.983 | > 8 µM | 0.971 | > 5 µM | 0.854 | 12.4 µM | 0.961 | > 10 µM | 0.912 | > 16 µM | 0.906 | > 10.2 µM
25 | L-363 (myeloma, suspension) | 0.473 | 0.106 µM | 0.967 | > 8 µM | 0.98 | > 5 µM | 0.838 | 8.78 µM | 0.765 | 3.2 µM | 0.977 | > 16 µM | 0.736 | 2.69 µM
26 | LB2518-MEL (melanoma, adherent) | 0.898 | > 2 µM | 0.901 | > 8 µM | 0.986 | > 5 µM | 0.853 | 13.6 µM | 0.727 | 2.87 µM | 0.916 | > 16 µM | 0.97 | > 10.2 µM
27 | LP-1 (myeloma, suspension) | 0.993 | > 2 µM | 0.983 | > 8 µM | 0.991 | > 5 µM | 0.872 | 10.9 µM | 0.989 | > 10 µM | 0.981 | > 16 µM | 0.891 | 8.36 µM
28 | LS-411N (large intestine, adherent) | 0.684 | 0.462 µM | 0.877 | > 8 µM | 0.964 | > 5 µM | 0.753 | 6.42 µM | 0.802 | 6.23 µM | 0.807 |  | 0.832 | 8.63 µM
29 | MDA-MB-231 (breast, adherent) | 0.872 | > 2 µM | 0.944 | > 8 µM | 0.956 | > 5 µM | 0.913 | > 16 µM | 0.82 | 6.2 µM | 0.941 | > 16 µM | 0.986 | > 10.2 µM
30 | ML-2 (acute myeloid leukaemia, suspension) | 0.674 | 0.358 µM | 0.941 | > 8 µM | 0.975 | > 5 µM | 0.643 | 2.36 µM | 0.685 | 1.92 µM | 0.941 | > 16 µM | 0.443 | 0.456 µM
31 | MOLM-13 (acute myeloid leukaemia, suspension) | 0.035 | < 0.00781 µM | 0.954 | > 8 µM | 0.971 | > 5 µM | 0.674 | 2.95 µM | 0.693 | 2.09 µM | 0.305 | 0.296 µM | 0.54 | 0.815 µM
